{"source": "paper PMC9911399", "about": "“Two distinct binding modes provide the RNA-binding protein RbFox with extraordinary sequence specificity”", "binders": {"B1": {"name": "ACGUCGA (DNA:RNA)", "RNA": "GGGAGACCGGAAUUCAGAUUGUCCACGUCGAUUAAAUCCCGUCGUAGCCACCA", "DNA 1": "CAATCTGAATTCCGGTCTCCC", "DNA 2": "TGGTGGCTACGACGGGATT"}, "B2": {"name": "CGACCGG (DNA:RNA)", "RNA": "B1 RNA with A25C, C26G, G27A, U28C, A31G", "DNA 1": "CAATCTGAATTCCGGTCTCCC", "DNA 2": "TGGTGGCTACGACGGGATT"}, "B3": {"name": "CUGUUUA (DNA:RNA)", "RNA": "B1 RNA with A25C, C26U, C29U, G30U", "DNA 1": "CAATCTGAATTCCGGTCTCCC", "DNA 2": "TGGTGGCTACGACGGGATT"}, "B4": {"name": "GAUGAUG (DNA:RNA)", "RNA": "GGGAGACCGGAAUUCAGAUUGUCCGAUGAUGUUAAAUCCCGUCGUAGCCACCA", "DNA 1": "CAATCTGAATTCCGGTCTCCC", "DNA 2": "TGGTGGCTACGACGGGATT"}, "B5": {"name": "AUGGAAC (DNA:RNA)", "RNA": "B1 RNA with C26U, U28G, C29A, G30A, A31C", "DNA 1": "CAATCTGAATTCCGGTCTCCC", "DNA 2": "TGGTGGCTACGACGGGATT"}, "B6": {"name": "CGUCGUA (DNA:RNA)", "RNA": "B4 RNA with G25C, A26G, G28C, A29G, G31A", "DNA 1": "CAATCTGAATTCCGGTCTCCC", "DNA 2": "TGGTGGCTACGACGGGATT"}, "B7": {"name": "AAGAGAC (DNA:RNA)", "RNA": "B1 RNA with C26A, U28A, C29G, G30A, A31C", "DNA 1": "CAATCTGAATTCCGGTCTCCC", "DNA 2": "TGGTGGCTACGACGGGATT"}, "B8": {"name": "UAGGGCA (DNA:RNA)", "RNA": "B1 RNA with A25U, C26A, U28G, C29G, G30C", "DNA 1": "CAATCTGAATTCCGGTCTCCC", "DNA 2": "TGGTGGCTACGACGGGATT"}, "B9": {"name": "GGUAAUC (DNA:RNA)", "RNA": "B4 RNA with A26G, G28A, G31C", "DNA 1": "CAATCTGAATTCCGGTCTCCC", "DNA 2": "TGGTGGCTACGACGGGATT"}}, "note": "Positions count from the first letter of the chain named. Some of the results follow."}
{"biological_target": "T1, RBFOX1 RRM (Homo sapiens, UniProt Q9NWB1 109-208)", "T1 sequence": "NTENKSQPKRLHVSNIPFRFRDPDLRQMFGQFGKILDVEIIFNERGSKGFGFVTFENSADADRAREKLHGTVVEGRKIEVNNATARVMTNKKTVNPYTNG", "assay": "EMSA; HiTS-Eq, 1 nM pool, 10 min; buffer printed only for the single-RNA assays: 10 mM Tris pH 7.5, 150 mM NaCl, 3.4 mM EDTA, 0.001% NP-40, 30 C", "details": "tags: His6 N-terminal (pET28a); label: 5' 32P", "procedure,_shortened": "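A pool of RNA with 7 randomized nucleotides, 5′-radiolabelled and with DNA-annealed flanks, was equilibrated at 1 nM for 10 min in 50 µL with purified RbFox RRM, wild type or mutant, across increasing protein concentrations. Free RNA was separated by 8% native PAGE, excised, reverse-transcribed, barcoded by PCR and sequenced. Relative association constants were obtained from read-count changes of each RNA species versus the control reaction and normalised to the cognate motif.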"}
{"binder": "B1", "binding signal": "0.00733 KA relative to UGCAUGU"}
{"binder": "B2", "binding signal": "0.00747 KA relative to UGCAUGU"}
{"binder": "B3", "binding signal": "0.0117 KA relative to UGCAUGU"}
{"binder": "B4", "binding signal": "0.0173 KA relative to UGCAUGU"}
{"binder": "B5", "binding signal": "0.00687 KA relative to UGCAUGU"}
{"binder": "B6", "binding signal": "0.0116 KA relative to UGCAUGU"}
{"binder": "B7", "binding signal": "0.00451 KA relative to UGCAUGU"}
{"binder": "B8", "binding signal": "0.0071 KA relative to UGCAUGU"}
{"binder": "B9", "binding signal": "0.0076 KA relative to UGCAUGU"}
